Laboratory results from the supplement of paper PMC3334620.
The full ranking holds about 33,000 sequences; the median of “E-score (-0.5 to 0.5)” is about -0.036, and the highest 2% start at about 0.37. Some of the results follow.

target: T1, Yer064c (UniProt P40041); assay: PBM E-score (8-mer binding enrichment) (E-score (-0.5 to 0.5)); higher = stronger / more preferred TF binding; most listed sequences are background and not binding sites; details: protein concentration: 200 nM; construct: GST-full length
T1 sequence: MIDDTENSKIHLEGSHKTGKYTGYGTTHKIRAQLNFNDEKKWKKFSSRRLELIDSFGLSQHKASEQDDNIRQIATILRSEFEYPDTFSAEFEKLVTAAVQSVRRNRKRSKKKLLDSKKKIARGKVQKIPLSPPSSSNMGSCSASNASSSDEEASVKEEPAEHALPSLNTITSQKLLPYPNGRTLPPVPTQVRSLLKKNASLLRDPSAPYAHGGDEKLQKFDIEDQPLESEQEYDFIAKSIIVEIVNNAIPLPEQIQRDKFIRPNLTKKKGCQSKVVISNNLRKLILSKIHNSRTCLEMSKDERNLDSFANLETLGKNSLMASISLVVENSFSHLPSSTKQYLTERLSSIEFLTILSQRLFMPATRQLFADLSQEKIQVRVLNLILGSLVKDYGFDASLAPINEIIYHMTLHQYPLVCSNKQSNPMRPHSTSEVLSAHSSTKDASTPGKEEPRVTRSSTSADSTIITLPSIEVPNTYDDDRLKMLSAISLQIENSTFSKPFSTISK
Protocol: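 Universal 'all 10-mer' protein binding microarrays (Agilent AMADID 015681) probed with GST-tagged S. cerevisiae TFs (full-length or DBD) made by in vitro transcription/translation (PURExpress), about 100-200 nM. Bound TF was detected with fluorescent anti-GST. Each ungapped 8-mer (which stands for itself and its reverse complement) is scored by the PBM enrichment score (E-score), a modified Wilcoxon-Mann-Whitney statistic from -0.5 to +0.5, computed with the Universal PBM Analysis Suite. Scale: above 0.35 generally sequence-specific binding.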

Row | Sequence | PBM E-score
1 | GCCGTATA | -0.214
2 | CATGGAGC | -0.0739
3 | CTTGGAGC | -0.0819
4 | GCACCTCC | -0.349
5 | CGTTAAAA | -0.172
6 | ACTATCCC | -0.0141
7 | CGGGTAAG | 0.0805
8 | GGAACACA | 0.0976
9 | ACCCCCGG | -0.29
10 | AAGAGCGC | 0.0664
11 | AGATGCGC | -0.344
12 | GATTGCAA | 0.204
13 | ACAGTAGC | 0.0569
14 | CTGAGAGC | -0.184
15 | AGAGGTCC | -0.279
16 | ACTATAAC | 0.0588
17 | CGAACTAC | 0.0577
18 | ACGTAGAC | -0.204
19 | GCCGACGA | 0.062
20 | CGATTCGC | 0.0811
21 | CCAAGAAG | -0.0914
22 | CCGCATAA | 0.0975
23 | CTTTCGTC | -0.0537
24 | AAATCTTA | 0.107
25 | CTGACATA | 0.0187

Row | Sequence | PBM E-score
26 | ACTATTCG | 0.051
27 | CGGCACTA | -0.141
28 | ACCGAGCC | 0.0308
29 | TACTAGGA | 0.0896
30 | CCAATCGG | -0.107
31 | AGGACACT | -0.282
32 | GGCGCACA | -0.314
33 | GACGAGAA | 0.143
34 | AGAAAAGC | -0.216
35 | TAATATCA | 0.0745
36 | CGTAAAGC | -0.152
37 | CTCATCCA | 0.186
38 | TTGGGAAA | -0.0471
39 | ATCTTACA | 0.0469
40 | CCCGGTAG | -0.033
41 | CGGGTTAC | -0.224
42 | ACTTTGCT | -0.0619
43 | GCGGATTA | 0.0222
44 | TAAGGTAA | 0.0427
45 | GCTGCAGC | -0.329
46 | ATCATTCA | 0.268
47 | AACGGATC | -0.0289
48 | CGATTAGC | 0.0915
49 | CGCTAGAG | 0.0393
50 | CTTCAGGC | 0.0427

Row | Sequence | PBM E-score
51 | CTACCGTC | -0.118
52 | CTAGAGAG | 0.127
53 | GGAACGAA | -0.138
54 | ACCCCTTA | -0.00226
55 | GTGTAAGA | 0.0664
56 | CAAGGGTG | 0.0913
57 | GAGGTGTA | -0.126
58 | GCTTCGAA | -0.0636
59 | AGACAACT | -0.0164
60 | CTGCGCGA | 0.0369
61 | ATATGTGG | -0.0412
62 | GCCTTTAA | -0.0411
63 | AATTCGGC | -0.19
64 | CGTCATAC | 0.192
65 | GAGAGAGA | -0.0218
66 | AACGGTAT | -0.138
67 | CGCACAGC | -0.212
68 | CGCGGATC | -0.134
69 | AATGGGTA | 0.222
70 | GCCCCTCC | -0.244
71 | AGGACTTA | 0.234
72 | CCCAGTAC | 0.062
73 | CCTGCATA | -0.199
74 | AAGTAAGG | -0.0564
75 | TACTCGAA | 0.0635

Row | Sequence | PBM E-score
76 | AAAGCATC | -0.258
77 | AGTTCCCC | -0.184
78 | AATCGACC | -0.108
79 | ATGGGGAA | -0.146
80 | GTGATCAC | 0.227
81 | AGTGAAGC | -0.241
82 | AAGGGGGC | -0.308
83 | AAATCTGG | -0.0548
84 | AGCTGAAC | -0.0485
85 | GGTAAACA | 0.0828
86 | ACTGTGGG | -0.00819
87 | ATATAATG | 0.191
88 | CCGGGCAA | -0.127
89 | CGTAGATA | -0.103
90 | AGATTGCA | -0.052
91 | GCGACACA | 0.0967
92 | ATCGTAGG | -0.0464
93 | CACCAGTC | 0.169
94 | GCGTTACC | -0.22
95 | CCGCGAGC | -0.174
96 | GGGAGACA | 0.057
97 | AATGTGCC | -0.359
98 | GTGTCGCA | -0.0448
99 | TCCTTTAA | -0.0751
100 | GAGTAGCC | -0.0295

Row | Sequence | PBM E-score
101 | CCCGCGTC | -0.199
102 | CGAGTGAC | 0.244
103 | CCCTGTCA | -0.213
104 | AATGCAAT | -0.0785
105 | CGAACCAG | 0.0948
106 | GGTTGTTA | -0.0739
107 | TCTACCAA | 0.0933
108 | AGGGCAGA | -0.149
109 | ACCCTGGA | -0.186
110 | ATCGAGCG | -0.123
111 | ACAGACCT | -0.0594
112 | GATCTACA | 0.0313
113 | CAAAGGTC | -0.0454
114 | AAAATTCA | 0.123
115 | ACGGTTGA | 0.128
116 | AGTACCCG | 0.117
117 | CCAGTCGA | 0.00412
118 | AATCGGAT | 0.107
119 | AGTCTTCG | 0.418
120 | GGGAACGA | -0.143
121 | CAGTGGGA | -0.0676
122 | CATCAAAC | -0.0879
123 | GGGTTGGA | -0.16
124 | CGGAGAAG | -0.184
125 | CTTACGGA | -0.00318

Row | Sequence | PBM E-score
126 | CCCACAAA | 0.0845
127 | AAATAGTG | 0.062
128 | AACTCTCA | 0.0457
129 | CTCCTGGC | -0.123
130 | AGTAAGAT | 0.0659
131 | GACTGGAA | 0.139
132 | CGACAGTA | 0.0755
133 | AGGCGCCC | -0.281
134 | ATATTGCC | -0.157
135 | AACACACC | 0.0884
136 | AGTACATC | 0.0751
137 | ACAAAGTA | 0.0867
138 | ACGCCCAA | -0.206
139 | CGGCTGGA | -0.218
140 | AGTAATAC | 0.119
141 | GGCGCAAC | -0.304
142 | AGTGAATA | 0.0602
143 | ACCTCTAG | -0.0546
144 | AAAGTAAC | -0.0294
145 | CACTAGTC | 0.274
146 | GCTGTCAA | -0.116
147 | AAGGAAGG | -0.0955
148 | TCAGAACA | 0.175
149 | GTGCACTA | 0.0504
150 | AAGTGAGT | 0.32

Row | Sequence | PBM E-score
151 | CGGTAAGA | -0.0984
152 | ACCAGTGC | -0.227
153 | CCCACGGG | -0.253
154 | AACTGTGC | -0.174
155 | CAAGCTCC | -0.273
156 | CATTGCGC | -0.001
157 | AATTCCCT | -0.276
158 | GGCACCAC | -0.343
159 | TAAGTATA | 0.127
160 | GCGAGTAA | 0.206
161 | ATCACCGA | 0.182
162 | ATAGACCA | -0.0156
163 | TCCCCAGA | -0.0137
164 | AATATATG | -0.0314
165 | ACACGGGC | -0.337
166 | CGTCAGCA | -0.0315
167 | AGTACTCC | 0.171
168 | GATCTAAC | 0.0278
169 | AACAGTCT | 0.204
170 | AATTTTCT | -0.133
171 | ATTTGAAC | 0.105
172 | CCCGATTC | 0.0678
173 | AACAAAGT | 0.0366
174 | ATAAATCC | -0.252
175 | ACACTGAC | 0.179

Row | Sequence | PBM E-score
176 | CTTCGTCA | 0.078
177 | CGATACAC | 0.0107
178 | AAAGGGCG | -0.0957
179 | TACGCCAA | -0.0677
180 | CCCGCCAC | -0.0887
181 | CGCCGAGA | -0.23
182 | CGTGGCTA | 0.122
183 | CATCAGCA | -0.143
184 | ACCGTTCG | -0.14
185 | CATTGGGA | -0.101
186 | AATCAATA | 0.261
187 | GATCCATC | -0.0154
188 | CGCTCTGA | 0.0188
189 | ACGAAGAC | 0.215
190 | CCCCGGTC | -0.331
191 | AAGTGTTG | 0.0583
192 | AACCAATA | 0.0442
193 | CCCCTCCG | -0.25
194 | AACGAACC | -0.0854
195 | TACAGTCA | 0.418
196 | CCAGTTGC | -0.196
197 | TGCCCCCA | -0.24
198 | ACAGCGAA | 0.102
199 | TGAGAGCA | -0.215
200 | ATCATTAA | 0.24

Row | Sequence | PBM E-score
201 | AAATCTGT | 0.066
202 | CAGTGTTC | -0.0821
203 | AGCCCAAG | -0.258
204 | ATCTCGTC | -0.14
205 | CCACTGCG | 0.0731
206 | AAAATAGT | 0.124
207 | ACAAGCGA | -0.0655
208 | GAGCGGCC | -0.174
209 | CCTGATAC | -0.0813
210 | CAAGAGGC | -0.00693
211 | ACTTAACG | 0.0504
212 | CACGCTGC | 0.118
213 | GATCTCTA | 0.0123
214 | CCTTCGAC | 0.0502
215 | AGGTCCAC | -0.254
216 | AAAGCGGT | -0.0937
217 | ATGTTCGC | -0.145
218 | CACCTATG | -0.00484
219 | ACCTGTCA | 0.044
